Results on 81 compounds are retold here after PubChem BioAssay (NCI).

“And” between values parts separate entries of the source, which are not always exact repeats. Identical values can stand only once.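 A five-concentration, 48-hour dose response in 96-well plates underlies each endpoint, interpolated linearly between surrounding concentrations. Abbreviation: GI50, concentration required for 50% inhibition of growth. TGI: total growth inhibition.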

For this experiment, the system named is NCI-H322M lung. As to the kind of experiment: growth of human tumour cells (NCI), 48 h.
Turning to `Cc1nc2ccc(S(=O)(=O)Nc3ccccn3)cc2c(=O)n1NS(=O)(=O)c1ccccn1`, the TGI was more than 100 µM.
Still for that read-out and setting: the result for `C=C[C@@]1(C)CC(=O)[C@]2(O)[C@@]3(C)[C@@H](OC(C)=O)CCC(C)(C)[C@@H]3[C@H](O)[C@H](OC(C)=O)[C@@]2(C)O1` reads more than 100 µM.
In the case of `C=C1C(=O)O[C@H]2[C@H]1CC/C(COC(=O)/C=C/c1cccnc1)=C\CC[C@@]1(C)O[C@@H]21`, the GI50 was 13.2 µM and the TGI was 26.5 µM.
For the compound `COC(=O)/C=C1\SC(=Nc2ccc(C(F)(F)F)cc2)N(CCc2c[nH]c3ccccc23)C1=O`, the GI50 is 2.08 µM and the TGI came out at 4.63 µM.
The compound `COC1CCC2C(=O)CCCC2O1` (stereo unspecified) registered a TGI of more than 100 µM.
In turn, `Nc1ccc(CCN2CCN(c3cccc(C(F)(F)F)c3)CC2)cc1` registered a TGI of more than 100 µM.
Still for that read-out and setting: the figure for `COC(=O)[C@H](C)[C@H]1CC[C@@](C)([C@H]2CC3C(C)(C)[C@H]4CCC(C)=C[C@H]4C[C@@]3(C)O2)OO1` (stereo partly specified) is 31.7 µM.
Same read-out and setting: the result for `CC[N+](C)(C)c1ccc(C(=C2C=CC(=[N+](C)C)C=C2)c2ccc(N(C)C)cc2)cc1` reads 78.2 µM.
For `c1ccc(Oc2c3ccccc3nc3ccccc23)cc1`, the GI50 was 3.08 µM and the TGI was found to be 10.8 µM.
Compound `O=C(O)C(Cc1ccccc1-c1ccccc1)C(=O)O` came in with a TGI of more than 100 µM.
`COc1cccc(/C=C\c2cc(OC)c(OC)c(OC)c2)c1` showed a TGI of more than 100 µM.
The compound `N#Cc1cccc(Nc2ccccc2SSc2ccccc2Nc2cccc(C#N)c2)c1` had a TGI of more than 21.5 µM.
In turn, `CCCOP1(=O)C=C(C)C(Cl)=C(C)C1` (stereo unspecified) had a TGI of 67 µM.
Regarding `CCOC(=O)c1sc2ncn(Cc3cccc(Cl)c3)c(=O)c2c1C`, the GI50 was 11.3 µM and the TGI worked out at 27.7 µM.
For the compound `COc1ccccc1/[N+]([O-])=C/c1ccccc1OC(=S)S`, the TGI is more than 100 µM.
On the same count and under the same terms, the figure for `Cc1cccc(/C=N/NC(=S)NC2CCCCC2)n1` is more than 100 µM; for `CCOC(=O)C(C)c1nc2cc(F)c(N3CCOCC3)cc2[nH]c1=O` (stereo unspecified) it is more than 100 µM.
Same read-out and setting: the figure for `CC(C)OP(=O)(OC(C)C)c1nn(-c2ccc([N+](=O)[O-])cc2)c(=N)s1` is more than 100 µM; for `C=C1C(=O)OC2C1C(OC(=O)/C(C)=C/C)CC(O)(CCl)C1C(OC(C)=O)C=C(C)C21O` (stereo unspecified) it is more than 64.6 µM; for `N#CCN(Cc1ccccc1)[C@H]1CCC[C@]1(O)/C=C/c1ccc2c(c1)OCO2` it is more than 100 µM.
Turning to `Cc1c2ncccc2c(C)c2c1[nH]c1ccc(O)cc12`, the GI50 was 9.08 µM and the TGI was 11.6 µM.
Compound `O=C(Nc1ccccc1)O/N=C1/CCCC/C1=C\c1ccccc1` registered a TGI of 40.6 µM.
Take `C(=C\c1ccccc1)/Cn1nc(-c2ccccc2)nc1-c1cnccn1`: the TGI was more than 100 µM.
As to `O=C1c2[nH]cc(CN[C@@H]3CCCN3)c2C(=O)c2c1c(O)c1ccccc1c2O`, the GI50 is 0.654 µM and the TGI stood at 1.83 µM.
Take `Cc1c2cc[n+](C)cc2c(C)c2c1[nH]c1ccc(OC(C)C)cc12`: the GI50 was 3.14 µM and 10.5 µM; the TGI was 70.9 µM and 93.5 µM.
As to `COc1ccc(OC)c2sc(N3C(=O)/C(=C/c4ccc(N(C)C)cc4)N=C3c3ccccc3)nc12`, the TGI is more than 100 µM.
On the same count and under the same terms, the figure for `O=[N+]([O-])/C(C(Cl)=C(Cl)Cl)=C(\Nc1cccc2cccnc12)Sc1ccccc1` is more than 100 µM.
Still for that read-out and setting: the result for `CC(C)/C(Cl)=N/OC(NC(=O)Nc1ccc(Cl)c(Cl)c1)(C(F)(F)F)C(F)(F)F` reads 31.9 µM; that for `CCCCCCC(O)C/C=C/CCCCCC/C(C(=O)OC)=C(/O)C(=O)OCC` (stereo unspecified), more than 100 µM.
Still for that read-out and setting: the result for `COC(=O)C(=O)C(C(=O)C(=O)Nc1ccc([N+](=O)[O-])cc1[N+](=O)[O-])c1nc2ccc([N+](=O)[O-])cc2[nH]c1=O` (stereo unspecified) reads more than 100 µM; that for `CC12CC(=O)OC(Cc3ccccc31)O2` (stereo unspecified), more than 100 µM; that for `Cc1ccc(C2=[N+]([O-])c3ccccc3C2=O)cc1`, more than 100 µM.
The compound `CC1(c2ccccc2)CC12C(=O)NC(=O)NC2=O` (stereo unspecified) gave a TGI of more than 100 µM.
For `O=C(Oc1cccc(Nc2ncnc3ccccc23)c1)c1ccccc1Cl`, the GI50 is 6.15 µM and the TGI is 38.1 µM.
The corresponding values for `CCN(CC)c1ccc2[nH]c3c(C(N)=O)cc(=O)c(=O)c=3oc2c1` are 1.71 µM and 4.77 µM.
The compound `Nc1nc(SCC(=O)O)[nH]c(=O)c1N` gave a TGI of more than 100 µM.
Compound `Cc1ccc([N+](=O)[O-])cc1S(=O)(=O)Nc1ccc(C2=NOC(c3ccccc3)C2)cc1` (stereo unspecified) had a TGI of 97.7 µM.
Still for that read-out and setting: the figure for `O=C1CC2(CCCc3sccc32)C(=O)N1` (stereo unspecified) is more than 100 µM.
`O=C1c2cccnc2-c2nc(-c3ccccn3)cc3c2c1nc1ccccc13`: the GI50 is 0.524 µM and the TGI is 1.95 µM.
The like results for `O=C(Nc1ncc([N+](=O)[O-])s1)c1cccc([N+](=O)[O-])c1` were, in that order, 3.26 µM and 32.1 µM.
Regarding `CCCCCCCCCCCCOCCCCCCCCC/C=C/c1ccc2c(c1)OCCOCCOCCOCCO2`, the TGI is more than 100 µM.
On the same count and under the same terms, the figure for `CC(=O)O[C@H]1CC[C@@]2(C)C(=CC[C@H]3[C@@H]4C[C@H](N5CCN(C)CC5)[C@H](OC(C)=O)[C@@]4(C)CC[C@@H]32)C1` is 36 µM.
In the case of `O=C(Nc1cccc(NS(=O)(=O)c2ccc(F)cc2)c1)c1ccc(-c2ccccc2)cc1`, the GI50 was 3.55 µM and the TGI is more than 100 µM.
For `COc1c2c(c(OC)c3c(=O)cc(C/C(=N/NC(=O)C[n+]4ccccc4)C(=O)Nc4cc(C)ccc4C)oc13)OCO2`, the TGI was more than 100 µM.
For `COC(=O)c1ccc(-c2nc3cc(F)c(F)cc3nc2C#N)cc1`, the GI50 is 6.77 µM and the TGI worked out at 14.6 µM.
Compound `O=S(=O)(O)c1cccc2ccc(O)c(N=Nc3ccc(S(=O)(=O)c4ccc(N=Nc5c(O)ccc6cccc(S(=O)(=O)O)c56)cc4)cc3)c12` registered a TGI of more than 100 µM.
Still for that read-out and setting: the figure for `O=c1[nH]nc(Cc2ccccc2)n1N=C1CCCCC1` is more than 100 µM; for `O=C(c1c(F)c(F)c(F)c(F)c1F)n1c(=O)[nH]c2ccccc21` it is 29 µM.
In the case of `C[C@@H](Oc1cc(-c2cnn(C3CCNCC3)c2)cnc1N)c1c(Cl)ccc(F)c1Cl`, the GI50 was 3.28 µM and the TGI was more than 10 µM.
The compound `CCOC(=O)Nn1cnnc1Cc1ccccc1` registered a TGI of more than 100 µM.
On to `Cc1c2[nH]c3ccc(Br)cc3c2c(C)c2[nH]ccc(=O)c12`, for which the TGI is 29.6 µM.
In the case of `Cc1c(C(=O)N/N=C/c2ccc(O)cc2)nnn1-c1ccnc2c(C(F)(F)F)cccc12`, the GI50 is more than 100 µM and the TGI was more than 100 µM.
Take `CN(O)C(=O)c1ccc(OCc2cccc(Cl)c2)cc1`: the TGI was more than 100 µM.
On the same count and under the same terms, the result for `Cc1ccc(-n2nnc3c(NNc4ccccc4)n[nH]c(=O)c32)cc1` reads more than 100 µM.
On to `COc1ccc(C(=O)c2cc(OC)c(OC)c(OC)c2)cc1/C=C/C(=O)c1ccc(O)cc1`, for which the GI50 is 6.03 µM and the TGI was 19.3 µM.
With `CC1/C=C/C=C/CC/C=C/C=C/C=C/C=C/C(OC2OC(C)C(O)C(N)C2O)CC2OC(CC(O)C(O)CCC(O)CC(O)CC(O)CC(=O)OC(C)C(C)C1O)CC(O)C2C(=O)O` (stereo unspecified), the GI50 is 26.5 µg/mL; the TGI was 30.8 µM and 50 µg/mL.
As for `COc1ccc(-c2cc(-c3ccccc3)c3c(n2)-c2ccccc2NC(=O)C3)cc1`, the TGI is more than 100 µM.
Same read-out and setting: the figure for `OC12c3ccccc3C1CCCCCCCCCC21OCCCO1` (stereo unspecified) is more than 100 µM; for `CC1(C)C2CC1C(/C=N\OCC(=O)O)=CC2=O` (stereo unspecified) it is more than 100 µM; for `Cc1cccc2c1CC(C1OC(=O)c3c(C)cccc31)C2=O` (stereo unspecified) it is more than 100 µM.
On to `COc1cccc(N2C(=O)CSC2c2c[nH]c3ccccc23)c1` (stereo unspecified), for which the TGI is more than 100 µM.
In the case of `COc1ccc(/C=C(\C#N)n2nnc3cc(Cl)ccc32)cc1`, the GI50 is 2.68 µM and the TGI is 13.3 µM.
`CC(C)(C)c1ccc(Oc2ccc(C#N)c(C#N)c2)c(C(C)(C)C)c1`: the TGI was more than 100 µM.
With `CCOC(=O)c1csc(NC(=O)CN2CCCCC2)n1`, the TGI is more than 100 µM.
Take `O=C(Nc1cccc(C2=NCCN2)c1)c1ccc(OCCCOc2ccc(C(=O)Nc3cccc(C4=NCCN4)c3)cc2)cc1`: the GI50 was 2.25 µM and the TGI stood at 5.66 µM.
`CC1=CC(=C(c2ccc(N)c(C)c2)c2ccc(N)c(C)c2)C=CC1=N` gave a TGI of more than 58.9 µM.
Still for that read-out and setting: the result for `CCC12CCC(O)C1N(C)CCC2Sc1ccccc1` (stereo unspecified) reads more than 100 µM; that for `CC(C)SC1SCC2C(=O)N(C)C3(CC3C)C(=O)OCC(NC(=O)c3nc4ccccc4cc3O)C(=O)NC(C)C(=O)N(C)C1C(=O)N(C)C1(CC1C)C(=O)OCC(NC(=O)c1nc3ccccc3cc1O)C(=O)NC(C)C(=O)N2C` (stereo unspecified), less than 0.0001 µM.
Still for that read-out and setting: the figure for `c1ccc2nc3c(nc2c1)sc1nc2ccccc2n13` is more than 100 µM.
For the compound `COc1c(O)cc2oc3cc(O)c(CC=C(C)C)c(O)c3c(=O)c2c1C/C=C(\C)CCC=C(C)C`, the GI50 is 5.51 µM and the TGI worked out at 10.5 µM.
In turn, `COC(=O)/C=C/COCC1C2CCC(=O)C21` (stereo unspecified) displayed a TGI of more than 100 µM.
Same read-out and setting: the result for `COc1ccc2c(c1)nc1n2C(c2c(F)cccc2F)SC1` (stereo unspecified) reads more than 100 µM.
Turning to `N#Cc1c2ccccc2c2nnc3cc(C(F)(F)F)ccc3n12`, the GI50 was more than 100 µM and the TGI was more than 100 µM.
As for `CCOc1cc(NC(C)=O)ccc1C(=O)NN1C(=O)C(Cl)C1c1ccc(O)c(OC)c1` (stereo unspecified), the TGI came to 26.6 µM.
For the compound `C=C(CN1CCc2ccccc2C1)c1ccc(/C=C/C(=O)Nc2ccccc2N)cc1`, the GI50 is 4.09 µM and the TGI was more than 100 µM.
The like results for `OCc1ccc(N(Cc2ccc(F)cc2)C2CCC2)cc1Cl` were, in that order, 9.36 µM and 21.7 µM.
`Nc1c(O)c2c(c(O)c1Cl)C(=O)C=CC2=O` registered a TGI of 4.29 µM.
As for `Cc1ccc2c(/C=C/C(=O)c3cc(CN4CCOCC4)c(O)c4nc(C)ccc34)cc(CN3CCOCC3)c(O)c2n1`, the GI50 is 1.5 µM and the TGI stood at 9.25 µM.
The corresponding values for `COc1ccc(/C=C\c2cc(OC)c(OC)c(OC)c2)cc1NC(=O)[C@@H](N)CO` are 0.0338 µM and more than 100 µM.
On to `CC[C@@]1(O)C(=O)OCc2c1cc1n(c2=O)Cc2c-1nc1ccccc1c2C=Nc1ccc(N[C@@H]2c3cc4c(cc3[C@@H](c3cc(OC)c(O)c(OC)c3)[C@H]3C(=O)OC[C@@H]32)OCO4)cc1`, for which the GI50 is 0.771 µM and 0.119 µM.
The compound `COC1C(=[N+]=[N-])C(=O)NC(=O)N1C1OC(COC(c2ccccc2)(c2ccccc2)c2ccccc2)C(O)C1O` (stereo unspecified) yielded a TGI of 30.3 µM.
